Residue numbers refer to the chain shown, from its start. The list shows a part of the results.
B1: UAUCAGA (DNA:RNA)
RNA: GGGAGACCGGAAUUCAGAUUGUCCUAUCAGAUUAAAUCCCGUCGUAGCCACCA
DNA 1: CAATCTGAATTCCGGTCTCCC
DNA 2: TGGTGGCTACGACGGGATT
B2: GUCGGCA (DNA:RNA)
RNA: B1 RNA with U25G, A26U, U27C, C28G, A29G, G30C
DNA 1: CAATCTGAATTCCGGTCTCCC
DNA 2: TGGTGGCTACGACGGGATT
B3: GAUGAGG (DNA:RNA)
RNA: B1 RNA with U25G, C28G, A31G
DNA 1: CAATCTGAATTCCGGTCTCCC
DNA 2: TGGTGGCTACGACGGGATT
B4: AAUCCCG (DNA:RNA)
RNA: B1 RNA with U25A, A29C, G30C, A31G
DNA 1: CAATCTGAATTCCGGTCTCCC
DNA 2: TGGTGGCTACGACGGGATT
B5: ACUCUAC (DNA:RNA)
RNA: B1 RNA with U25A, A26C, A29U, G30A, A31C
DNA 1: CAATCTGAATTCCGGTCTCCC
DNA 2: TGGTGGCTACGACGGGATT
B6: GCUCCUA (DNA:RNA)
RNA: B1 RNA with U25G, A26C, A29C, G30U
DNA 1: CAATCTGAATTCCGGTCTCCC
DNA 2: TGGTGGCTACGACGGGATT
B7: AGAGAGA (DNA:RNA)
RNA: B1 RNA with U25A, A26G, U27A, C28G
DNA 1: CAATCTGAATTCCGGTCTCCC
DNA 2: TGGTGGCTACGACGGGATT
B8: UGCAGAA (DNA:RNA)
RNA: B1 RNA with A26G, U27C, C28A, A29G, G30A
DNA 1: CAATCTGAATTCCGGTCTCCC
DNA 2: TGGTGGCTACGACGGGATT
B9: AUCUGCG (DNA:RNA)
RNA: GGGAGACCGGAAUUCAGAUUGUCCAUCUGCGUUAAAUCCCGUCGUAGCCACCA
DNA 1: CAATCTGAATTCCGGTCTCCC
DNA 2: TGGTGGCTACGACGGGATT
B10: UCACUGU (DNA:RNA)
RNA: B1 RNA with A26C, U27A, A29U, A31U
DNA 1: CAATCTGAATTCCGGTCTCCC
DNA 2: TGGTGGCTACGACGGGATT
B11: AUCACCU (DNA:RNA)
RNA: B9 RNA with U28A, G29C, G31U
DNA 1: CAATCTGAATTCCGGTCTCCC
DNA 2: TGGTGGCTACGACGGGATT
B12: UAAAUUA (DNA:RNA)
RNA: B1 RNA with U27A, C28A, A29U, G30U
DNA 1: CAATCTGAATTCCGGTCTCCC
DNA 2: TGGTGGCTACGACGGGATT
B13: UAAGACC (DNA:RNA)
RNA: B1 RNA with U27A, C28G, G30C, A31C
DNA 1: CAATCTGAATTCCGGTCTCCC
DNA 2: TGGTGGCTACGACGGGATT
B14: UGGAAUA (DNA:RNA)
RNA: B1 RNA with A26G, U27G, C28A, G30U
DNA 1: CAATCTGAATTCCGGTCTCCC
DNA 2: TGGTGGCTACGACGGGATT
B15: AACUCGA (DNA:RNA)
RNA: B9 RNA with U26A, G29C, C30G, G31A
DNA 1: CAATCTGAATTCCGGTCTCCC
DNA 2: TGGTGGCTACGACGGGATT
B16: AUGCCAC (DNA:RNA)
RNA: B9 RNA with C27G, U28C, G29C, C30A, G31C
DNA 1: CAATCTGAATTCCGGTCTCCC
DNA 2: TGGTGGCTACGACGGGATT
B17: AGUUUUG (DNA:RNA)
RNA: B9 RNA with U26G, C27U, G29U, C30U
DNA 1: CAATCTGAATTCCGGTCTCCC
DNA 2: TGGTGGCTACGACGGGATT
B18: GCCCGUC (DNA:RNA)
RNA: B9 RNA with A25G, U26C, U28C, C30U, G31C
DNA 1: CAATCTGAATTCCGGTCTCCC
DNA 2: TGGTGGCTACGACGGGATT
B19: AUAUCGC (DNA:RNA)
RNA: B9 RNA with C27A, G29C, C30G, G31C
DNA 1: CAATCTGAATTCCGGTCTCCC
DNA 2: TGGTGGCTACGACGGGATT
B20: CCGCGUG (DNA:RNA)
RNA: B9 RNA with A25C, U26C, C27G, U28C, C30U
DNA 1: CAATCTGAATTCCGGTCTCCC
DNA 2: TGGTGGCTACGACGGGATT
B21: AUGGUCA (DNA:RNA)
RNA: B9 RNA with C27G, U28G, G29U, G31A
DNA 1: CAATCTGAATTCCGGTCTCCC
DNA 2: TGGTGGCTACGACGGGATT
B22: GAGAAAC (DNA:RNA)
RNA: B1 RNA with U25G, U27G, C28A, G30A, A31C
DNA 1: CAATCTGAATTCCGGTCTCCC
DNA 2: TGGTGGCTACGACGGGATT
B23: UCCGGCA (DNA:RNA)
RNA: B9 RNA with A25U, U26C, U28G, G31A
DNA 1: CAATCTGAATTCCGGTCTCCC
DNA 2: TGGTGGCTACGACGGGATT
B24: AUGUUUU (DNA:RNA)
RNA: B9 RNA with C27G, G29U, C30U, G31U
DNA 1: CAATCTGAATTCCGGTCTCCC
DNA 2: TGGTGGCTACGACGGGATT
B25: GCCAGCU (DNA:RNA)
RNA: B9 RNA with A25G, U26C, U28A, G31U
DNA 1: CAATCTGAATTCCGGTCTCCC
DNA 2: TGGTGGCTACGACGGGATT
B26: CAUGCUG (DNA:RNA)
RNA: B1 RNA with U25C, C28G, A29C, G30U, A31G
DNA 1: CAATCTGAATTCCGGTCTCCC
DNA 2: TGGTGGCTACGACGGGATT
B27: CGCUCAG (DNA:RNA)
RNA: B9 RNA with A25C, U26G, G29C, C30A
DNA 1: CAATCTGAATTCCGGTCTCCC
DNA 2: TGGTGGCTACGACGGGATT
B28: CUCCGGA (DNA:RNA)
RNA: B9 RNA with A25C, U28C, C30G, G31A
DNA 1: CAATCTGAATTCCGGTCTCCC
DNA 2: TGGTGGCTACGACGGGATT
B29: UGGGUCG (DNA:RNA)
RNA: B9 RNA with A25U, U26G, C27G, U28G, G29U
DNA 1: CAATCTGAATTCCGGTCTCCC
DNA 2: TGGTGGCTACGACGGGATT
B30: UAAGCUA (DNA:RNA)
RNA: B1 RNA with U27A, C28G, A29C, G30U
DNA 1: CAATCTGAATTCCGGTCTCCC
DNA 2: TGGTGGCTACGACGGGATT
B31: AUCCCUC (DNA:RNA)
RNA: B9 RNA with U28C, G29C, C30U, G31C
DNA 1: CAATCTGAATTCCGGTCTCCC
DNA 2: TGGTGGCTACGACGGGATT

Molecular target: T1, RBFOX1 RRM (Homo sapiens, UniProt Q9NWB1 109-208)
T1 sequence: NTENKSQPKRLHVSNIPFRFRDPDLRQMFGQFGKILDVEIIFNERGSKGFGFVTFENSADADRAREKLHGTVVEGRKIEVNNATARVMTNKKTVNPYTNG
Assay: EMSA; HiTS-Eq, 1 nM pool, 10 min; buffer printed only for the single-RNA assays: 10 mM Tris pH 7.5, 150 mM NaCl, 3.4 mM EDTA, 0.001% NP-40, 30 C
Conditions: tags: His6 N-terminal (pET28a); label: 5' 32P
Outline: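 Purified RbFox RRM, wild type or mutant, was incubated for 10 min in 50 µL with 1 nM of a 5′-radiolabelled RNA pool carrying 7 randomized nucleotides, whose flanks were annealed to DNA oligonucleotides, over a series of increasing protein concentrations. Unbound RNA was resolved on 8% native PAGE, cut out, reverse-transcribed, barcoded by PCR and sequenced on an Illumina HiSeq 2500. Relative association constants were derived from changes in read counts for each RNA species versus the control reaction and normalised to the cognate motif.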

Compared with B1, B2 is higher in binding signal: 0.0158 KA relative to UGCAUGU for the first, 0.0205 KA relative to UGCAUGU for the second.

Compared with B3, B4 is lower in binding signal: 0.0162 KA relative to UGCAUGU for the first, 0.00284 KA relative to UGCAUGU for the second.

Compared with B5, B6 is higher in binding signal: 0.00136 KA relative to UGCAUGU for the first, 0.00339 KA relative to UGCAUGU for the second.

First: B7
Second: B8
The binding signal of the first is lower: 0.0104 KA relative to UGCAUGU for the first, 0.0113 KA relative to UGCAUGU for the second.

First: B9
Second: B10
The binding signal of the first is higher: 0.0148 KA relative to UGCAUGU for the first, 0.00833 KA relative to UGCAUGU for the second.

First: B11
Second: B12
The binding signal of the first is lower: 0.00026 KA relative to UGCAUGU for the first, 0.00608 KA relative to UGCAUGU for the second.

Compared with B13, B14 is higher in binding signal: 0.00474 KA relative to UGCAUGU for the first, 0.0138 KA relative to UGCAUGU for the second.

First: B15
Second: B16
The binding signal of the first is lower: 0.00597 KA relative to UGCAUGU for the first, 0.0065 KA relative to UGCAUGU for the second.

First: B17
Second: B18
The binding signal of the first is lower: 0.0174 KA relative to UGCAUGU for the first, 0.0217 KA relative to UGCAUGU for the second.

Compared with B19, B20 is higher in binding signal: 0.00275 KA relative to UGCAUGU for the first, 0.0193 KA relative to UGCAUGU for the second.

Compared with B21, B22 is lower in binding signal: 0.0116 KA relative to UGCAUGU for the first, 0.00961 KA relative to UGCAUGU for the second.

First: B23
Second: B24
The binding signal of the first is higher: 0.0141 KA relative to UGCAUGU for the first, 0.00776 KA relative to UGCAUGU for the second.

First: B25
Second: B26
The binding signal of the first is higher: 0.0107 KA relative to UGCAUGU for the first, 0.00913 KA relative to UGCAUGU for the second.

First: B27
Second: B28
The binding signal of the first is higher: 0.0088 KA relative to UGCAUGU for the first, 0.00678 KA relative to UGCAUGU for the second.

First: B29
Second: B30
The binding signal of the first is higher: 0.0407 KA relative to UGCAUGU for the first, 0.0062 KA relative to UGCAUGU for the second.

In the case of B31, the binding signal is reported as 0.00229 KA relative to UGCAUGU.

From PMC9911399, “Two distinct binding modes provide the RNA-binding protein RbFox with extraordinary sequence specificity”
